Measured values from PubChem BioAssay AID720542 (National Center for Advancing Translational Sciences (NCATS), 2013).
Hit rate of the full screen: of about 360,000 compounds, about 740 (0.21%) were called active. This list was built around the results that the source calls inconclusive (neither active nor inactive); the mix of calls is not that of the screen. Calls follow the shape of the dose curve; as a rule, active = well fitted inhibition curve with a large enough effect; inconclusive = small, poorly fitted or top-dose-only effect; inactive = no such curve, though single readings can be large or run the other way. No potency is given beside an inconclusive call; the fits are too rough.

Tested on: Plasmodium falciparum AMA1 (3D7) - RON2 peptide interaction
Assay: qHTS for Inhibitors of AMA1-RON; Towards Development of Antimalarial Drug Lead: Primary Screen; also: nearly all actives have a fitted effect of over 45% in size;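 as to activity change, negative = inhibition: 0% = vehicle wells and -100% = peptide control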
Settings: AlphaScreen AMA1-biotinylated RON2 peptide binding; activity change, negative = inhibition: at 58.2 µM (top of the series) unless noted
Summary of the method: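 AMA1 (3D7) with his tag at 25 nM final met compounds first, then biotinylated RON2 peptide at 25 nM; detection used donor plus acceptor beads, 10 µg/mL apiece, read by AlphaScreen after 30 min at room temperature.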
Potency is read from the fitted curve at half-maximal effect; tags tell the direction and shape of the fitted curve.

SMILES	Potency	activity change, negative = inhibition
Cc1ccc(-c2nc(Cl)nc3ccccc23)cc1	inconclusive [inhibitor, partial curve]	–
CCOC(=O)C(C(=O)OCC)C(C)(C)/C(C)=N\Nc1ccc([N+](=O)[O-])cc1[N+](=O)[O-]	inconclusive [inhibitor, full curve]	–
COc1ccc(C(=O)N/C(=C\c2ccc3c(c2)OCO3)C(=O)Nc2ccc(C(=O)O)cc2)cc1	inconclusive [inhibitor, single point]	–
Cc1ccc(Nc2nc(N)nc(CN3CCCCCC3)n2)c(C)c1	–	inactive: -7.18%
O=C1/C(=C\c2ccc(-c3ccccc3[N+](=O)[O-])o2)C(c2ccccc2)=NN1c1ccccc1	inconclusive [inhibitor, partial curve]	–
CCSc1ncc(/C=N/Nc2ccc(Cl)cc2)n1C	inconclusive [inhibitor, single point]	–
COc1cc(C(=O)NCC(c2cccs2)N2CCc3ccccc32)cc(OC)c1OC (stereo unspecified)	inconclusive [inhibitor, single point]	–
C/C=C/c1ccc(OCCCCN2CCN(CC)CC2)c(OC)c1	inconclusive [inhibitor, single point]	–
O=C(Nc1ccc(S(=O)(=O)Nc2cnc3ccccc3n2)cc1)c1ccc(F)cc1	inconclusive [inhibitor, single point]	–
O=C1Nc2ccccc2C1=Nc1ccc2[nH]c3ccccc3c2c1	inconclusive [inhibitor, partial curve]	–
Cc1ccc(N=Nc2cc(C)ccc2O)c(C)c1	inconclusive [inhibitor, single point]	–
CC(C)CCn1nnnc1CN1CCN(c2ccc(F)cc2)CC1	inconclusive [inhibitor, full curve]	–
O=C(CSc1ccc2nnc(-c3ccccn3)n2n1)N1CCN(c2ccccc2)CC1	inconclusive [inhibitor, partial curve]	–
CCOc1cccc(C(=O)Nc2ccc(N(CC)CC)cc2)c1	inconclusive [inhibitor, single point]	–
O=C(C[C@H]1C[C@H](C(=O)N2CCOCC2)[C@@]2(CCC3CCCC3)c3[nH]c4cc(-c5ccco5)ccc4c3CCN2C1=O)NCCc1ccccn1	inconclusive [inhibitor, single point]	–
O=C1CCN(Cc2ccc(Cl)cc2Cl)C(=O)N1	–	inactive: -3.63%
O=C1c2ccccc2C(=O)N1CCCCNc1ccccc1	inconclusive [inhibitor, partial curve]	–
CC1CC(C)CN(C(=O)c2ccc3c(c2)OCCO3)C1 (stereo unspecified)	–	inactive: -7.58%
Cc1cc(C(=O)COC(=O)Cc2n[nH]c(=O)c3ccccc23)c(C)n1-c1ccc2c(c1)OCO2	–	inactive: -1.81%
COc1ccc(CN2CCN(C(=O)c3ccco3)CC2)cc1OCc1ccccc1	inconclusive [inhibitor, single point]	–
Cc1ccc(SCC(=O)OC(C)C(=O)NC2(C#N)CCCCC2)cc1 (stereo unspecified)	–	inactive: -11.6%
COc1cc2c3nnc(-c4ccc(F)cc4)c-3cn(Cc3cccc(F)c3)c2cc1OC	inconclusive [inhibitor, single point]	–
COc1cc2c(cc1OC)CN(c1nc(-c3cccnc3)nc3ccccc13)CC2	inconclusive [inhibitor, partial curve, poor fit]	–
Cc1ccc2nc(-c3ccc(NC(=O)CSc4ccccc4)cc3)[nH]c2c1	inconclusive [inhibitor, single point]	–

SMILES	Potency	activity change, negative = inhibition
CN(C)S(=O)(=O)c1ccc(NC(=O)Cc2ccc(S(=O)(=O)N3CCOCC3)s2)cc1	inconclusive [inhibitor, single point]	–
O=[N+]([O-])c1ccccc1CNCCc1c[nH]c2ccccc12	inconclusive [inhibitor, full curve, poor fit]	–
O=c1cc(CN2CCN(C/C=C/c3ccccc3)CC2)c2cc(O)ccc2o1	–	inactive: -13.7%
COc1ccc(Oc2ccc(/C=C/C(=O)c3ccc(O)cc3)cc2[N+](=O)[O-])cc1	–	inactive: -9.24%
CCCCC/C=C\C[C@H](O)/C=C/c1cccc(C[C@H](O)CCCCO)n1	–	inactive: 35.5%
Nc1nc(N)c2cc(CNc3ccc(Cl)c(Cl)c3)ccc2n1	inconclusive [inhibitor, single point]	–
COc1ccc(OC(=O)CCc2c[nH]c3ccccc23)cc1	inconclusive [inhibitor, partial curve]	–
CCOc1cc(C2C(C#N)=C(N)Oc3n[nH]c(CC)c32)ccc1OCCN1CCOCC1 (stereo unspecified)	–	inactive: -2.48%
Cn1c(-c2ccc3nc(N)sc3c2)nc2cc(N)ccc21	inconclusive [inhibitor, full curve]	–
COc1ccc(-c2ccccc2)cc1NCc1ccccc1C	inconclusive [inhibitor, partial curve]	–
CN1C(=O)/C(=C/c2cccn2-c2ccc3ccccc3c2)C(=O)NC1=S	inconclusive [inhibitor, partial curve]	–
COc1ccc(-c2c(-c3ccc4c(c3)OCO4)c3ccccc3n2C)cc1	inconclusive [inhibitor, partial curve]	–
Cc1ccc(Cc2c(-c3ccccc3)nc3cc(C)ccn23)cc1	inconclusive [inhibitor, single point]	–
O=C(NNc1c2ccccc2nc2ccccc12)c1ccc(O)cc1O	inconclusive [inhibitor, single point]	–
O=C(Nc1ccccc1N1CCCCC1)C1CCN(S(=O)(=O)c2ccccc2C(F)(F)F)CC1	inconclusive [inhibitor, full curve, poor fit]	–
O=C(O/N=C(\c1ccccc1)c1ccccn1)c1cccc2ccccc12	–	inactive: 36.2%
CC(=O)Nc1cccc(-c2ccnc3c2CC(C(=O)Nc2cccc(N(C)C)c2)O3)c1 (stereo unspecified)	inconclusive [inhibitor, partial curve]	–
Cc1cc(C)c(C#N)c(SCS(=O)Cc2ccc(Cl)cc2)n1 (stereo unspecified)	–	inactive: 5.59%
CC(C)(C)NC(=O)CSc1nc(Cc2ccccc2)nc2ccccc12	–	inactive: 5.41%
CCOC(=O)CN1CC23C=CC(O2)C(C(=O)NC2CCCCC2)C3C1=O (stereo unspecified)	–	inactive: 6.76%
O=C(Nc1nc2ccccc2[nH]1)c1ccccc1F	–	inactive: 63.4%
Cc1[nH]c2ccccc2c1C(=O)CN1CCC(C)CC1	inconclusive [inhibitor, single point]	–
Cc1ccc(NC(=O)C2(C)CCN2Cc2ccccc2OC(F)F)cc1 (stereo unspecified)	–	inactive: 11.9%
O=[N+]([O-])c1ccc2nc(-c3ccccc3)cc(-c3ccccc3)c2c1	–	inactive: 23% [at 11.6 µM]

SMILES	Potency	activity change, negative = inhibition
CCn1c(SCC(=O)c2ccccc2)nnc1-c1cnccn1	–	inactive: 8.01%
O=C(C1CCCC1)N1CCC(CC2CC(c3ccc(Cl)cc3)=NO2)(C(=O)NCC2CCCCC2)CC1 (stereo unspecified)	–	inactive: 0.316%
CSCC[C@H](NC(=O)OC(C)(C)C)C(=O)N/N=C/c1ccc2nccnc2c1	–	inactive: -8.43%
CCN(CC)C(=O)CSc1nnc(-c2ccco2)n1Cc1ccco1	–	inactive: 4.73%
COC(=O)c1ccc(COC(=O)c2ccc(-n3cnnn3)cc2)o1	inconclusive [inhibitor, partial curve]	–
COc1cc(C(=O)Oc2ccccc2)ccc1OCc1c(C)noc1C	inconclusive [inhibitor, single point]	–
C/C(=N\NC(=O)C1CC1)c1ccc(OC(F)F)cc1	–	inactive: 2.76%
CCc1ccc(N2CC(C(=O)OC)CC2=O)cc1 (stereo unspecified)	inconclusive [inhibitor, full curve, poor fit]	–
Cc1c(C(=O)N(C)C)sc(NC(=O)c2cc([N+](=O)[O-])cc([N+](=O)[O-])c2)c1C#N	inconclusive [inhibitor, partial curve]	–
C=CCSc1nc2c(N)ncnc2n1C1OC(CO)C(O)C1O (stereo unspecified)	–	inactive: -19.3%
CC(C)n1c(O)c(N=NC(=O)C2COc3ccccc3O2)c2ccccc21 (stereo unspecified)	inconclusive [inhibitor, partial curve]	–
O=C(c1ccccn1)c1cc2ccccc2n1S(=O)(=O)c1ccccc1	–	inactive: 0.418%
CN(CC(=O)Nc1ccc(F)cc1)C(=O)COC(=O)c1cc(S(=O)(=O)N(C)C)ccc1N1CCCC1	–	inactive: 0%
O=C(C[n+]1cc(-c2ccc(F)cc2)n2c1CCC2)N1c2ccccc2Sc2ccccc21	inconclusive [inhibitor, partial curve, poor fit]	–
CCOC(=O)C1=C(O)/C(=C\c2ccc(OC)c(OC)c2)N=C1C	inconclusive [inhibitor, single point]	–
CC1CCN(c2ccccc2NC(=O)c2ccc(Br)o2)CC1	inconclusive [inhibitor, single point]	–
O=C(Nc1nn[nH]n1)c1cc(-c2ccc(Cl)c(Cl)c2Cl)nc2ccccc12	–	inactive: 29%
COC(=O)c1ccc2nc(C3CCCCC3)c(Cc3cccc(Cl)c3)n2c1	–	inactive: -9.87%
O=C1C(Br)=Cc2cccc3cccc1c23	inconclusive [inhibitor, partial curve]	–
CCCOc1ccc(C2C3=C(Nc4nc(N)[nH]c(=O)c42)c2ccccc2C3=O)cc1 (stereo unspecified)	inconclusive [inhibitor, single point]	–
O=C1CCC([N+](=O)[O-])C(c2cccc([N+](=O)[O-])c2)N1 (stereo unspecified)	–	inactive: 2.14%
Cc1ccc(SCc2cc(=O)c3c(=O)n(-c4ccccc4)[nH]c3[nH]2)cc1	inconclusive [inhibitor, partial curve]	–
CCOc1ccc(NC(=O)Cn2nnc(-c3ccccc3F)n2)cc1	–	inactive: 0.0598%
